From PubChem BioAssay AID2147 (National Center for Advancing Translational Sciences (NCATS), 2009)
Out of some 230,000 compounds screened, about 3,600 (1.6%) were called active. Inconclusive means that the source gave no clear call. Such entries were picked first, then a sample of the others. Calls come from the whole dose curve; as a rule, active = well fitted inhibition curve with a large enough effect (not every such curve was filed as active); inconclusive = small, poorly fitted or top-dose-only effect, or another doubt; inactive = no such curve, though single readings can be large or run the other way. A potency beside an inconclusive call is a rough fit, not a confirmed value.

Each compound was assayed against Lysine-specific demethylase 4E (Homo sapiens) (UniProt B2RXH2) (assay: qHTS Assay for Inhibitors of Human Jumonji Domain Containing 2E (JMJD2E)). Details: JMJD2E catalytic domain, FDH-coupled NADH fluorescence (FDH is formaldehyde dehydrogenase); series mostly up to 57.1 µM.
Note: nearly all actives have a fitted effect of over 50% in size.
Potency is the fitted concentration of half-maximal effect; tags give direction and shape of the fitted curve.

Sequence of UniProt B2RXH2 (B2RXH2 whole entry, looked up, the tested form may be a part): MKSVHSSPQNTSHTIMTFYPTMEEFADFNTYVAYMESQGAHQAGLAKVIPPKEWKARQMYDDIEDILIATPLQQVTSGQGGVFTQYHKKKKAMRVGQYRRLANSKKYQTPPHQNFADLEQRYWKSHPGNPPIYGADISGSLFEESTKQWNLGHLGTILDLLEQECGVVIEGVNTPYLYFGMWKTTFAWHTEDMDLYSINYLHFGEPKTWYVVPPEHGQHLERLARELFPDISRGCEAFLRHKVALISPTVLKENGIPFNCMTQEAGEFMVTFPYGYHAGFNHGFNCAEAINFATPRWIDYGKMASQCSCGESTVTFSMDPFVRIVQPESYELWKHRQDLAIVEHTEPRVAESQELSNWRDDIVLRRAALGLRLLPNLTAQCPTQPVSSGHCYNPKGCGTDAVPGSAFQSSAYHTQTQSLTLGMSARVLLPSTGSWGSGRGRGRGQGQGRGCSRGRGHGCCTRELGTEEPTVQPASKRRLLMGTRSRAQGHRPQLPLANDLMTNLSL

Question: CCC(C)n1c(SC(C)C#N)nc2ccccc2c1=O (centres undefined) was tested. Which Potency did it give?
Answer: The Potency was “inactive”.

Question: c1ccc(-c2nc3ccccc3c3nc4ccccc4n23)cc1 was tested. Which Potency did it give?
Answer: The Potency was inconclusive: 7.08 µM [inhibitor, single point].

Question: How did the Potency turn out when COc1cc(C(=S)N2CCC(C)CC2)ccc1O was run?
Answer: Its Potency is “inactive”.

Question: With COc1ccccc1-c1nc(-c2ccccn2)no1 as the compound, how does the Potency read?
Answer: The Potency was inconclusive: 31.6 µM [inhibitor, single point].

Question: For O=C1N/C(=C/c2ccco2)C(=O)N1Cc1ccccc1F, which Potency is on record?
Answer: Its Potency is inconclusive: 39.8 µM [inhibitor, single point].

Question: With O=C1c2cccc([N+](=O)[O-])c2C(=O)N1c1cccnc1 as the compound, how does the Potency read?
Answer: The Potency was inconclusive: 28.2 µM [inhibitor, single point].

Question: Which Potency does the source give for O=C(CCCC(=O)N/N=C\c1ccccn1)N/N=C\c1ccccn1 here?
Answer: The Potency was “inactive”.

Question: How did the Potency turn out when COc1cccc(C(=O)N2CCN(Cc3cc(Br)ccc3OC)CC2)c1 was run?
Answer: The Potency was inconclusive: 28.2 µM [inhibitor, single point].

Question: CCCCn1cnc2cc(C)c(C)cc21 was tested. Which Potency did it give?
Answer: Its Potency is “inactive”.

Question: With Cc1ccc(NC(=O)C2CCN(c3cnccn3)CC2)cc1 as the compound, how does the Potency read?
Answer: Its Potency is inconclusive: 39.8 µM [inhibitor, single point].

Question: How did the Potency turn out when CCOC(=O)CC1=C(C(=O)OCC)C(c2ccc(C)o2)C(C#N)=C(N)O1 (centres undefined) was run?
Answer: Its Potency is “inactive”.

Question: For COc1ccc(-c2ccc([C@H]3[C@@H]4C=CCC[C@@]4(C)C(=O)N3Cc3ccccc3)c(F)c2)cc1OC, which Potency is on record?
Answer: The Potency was inconclusive: 31.6 µM [inhibitor, partial curve].

Question: COc1ccc(NC(=O)C(C)Sc2ccccc2)cc1 (centres undefined) was tested. Which Potency did it give?
Answer: The Potency was “inactive”.

Question: Which Potency does the source give for CC1CCc2sc(-c3n[nH]c(=S)o3)cc2C1 (centres undefined) here?
Answer: Its Potency is inconclusive: 20 µM [inhibitor, partial curve].

Question: O=C(/C=C/c1cn(-c2ccccc2)nc1-c1ccc2c(c1)OCCO2)NCCCN1CCOCC1 was tested. Which Potency did it give?
Answer: The Potency was inconclusive: 28.2 µM [inhibitor, partial curve].

Question: With Cc1sc(NC(=O)c2ccco2)c(C(c2cccnc2)N2CCN(CCO)CC2)c1C (centres undefined) as the compound, how does the Potency read?
Answer: The Potency was “inactive”.

Question: With COC(=O)Cc1c(C)c2ccc(OCC(=O)N(C)C)cc2oc1=O as the compound, how does the Potency read?
Answer: Its Potency is inconclusive: 31.6 µM [inhibitor, partial curve].

Question: O=[N+]([O-])c1ccc(C(=S)N2CCN(c3ccc(F)cc3)CC2)cc1 was tested. Which Potency did it give?
Answer: Its Potency is “inactive”.

Question: With O=C(Nc1ccc(Cl)cc1F)c1ccccc1Br as the compound, how does the Potency read?
Answer: The Potency was “inactive”.

Question: Which Potency does the source give for Cc1cc(C(=O)NNC(=S)NCc2ccco2)nn1C here?
Answer: The Potency was inconclusive: 39.8 µM [inhibitor, single point].

Question: Which Potency does the source give for O=C(OCC(=O)N1CCc2ccccc2C1)c1ccc(N2CCOCC2)c([N+](=O)[O-])c1 here?
Answer: Its Potency is “inactive”.

Question: How did the Potency turn out when Oc1ccc2ccccc2c1CNn1cnnc1 was run?
Answer: Its Potency is inconclusive: 28.2 µM [inhibitor, single point].

Question: Which Potency does the source give for CCOC(=O)/C(C#N)=C/Nc1cc(OC)ccc1OC here?
Answer: Its Potency is inconclusive: 35.5 µM [inhibitor, single point].

Question: With CCOC(=O)c1sc2nc(SCC(=O)N(CC)CC)n(CCCN3CCCC3=O)c(=O)c2c1C as the compound, how does the Potency read?
Answer: The Potency was inconclusive: 31.6 µM [inhibitor, single point].

Question: Cc1cccc(NC(=O)c2ccc(N3CCOCC3)c([N+](=O)[O-])c2)n1 was tested. Which Potency did it give?
Answer: Its Potency is “inactive”.

Question: How did the Potency turn out when O=C(CN1C(=O)C2CCCCC2C1=O)OCn1nnc2ccccc2c1=O (centres undefined) was run?
Answer: Its Potency is “inactive”.

Question: With CCCNC(=O)COC(=O)c1cc(C)nc2ccccc12 as the compound, how does the Potency read?
Answer: Its Potency is inconclusive: 25.1 µM [inhibitor, single point].

Question: For Cc1cn(C(=O)c2ccccc2)c(=S)n1-c1ccc(Cl)cc1, which Potency is on record?
Answer: The Potency was inconclusive: 28.2 µM [inhibitor, single point].

Question: How did the Potency turn out when Cc1ccc(NNS(=O)(=O)c2ccc(C)cc2)cc1 was run?
Answer: Its Potency is active: 17.8 µM.

Question: Which Potency does the source give for CC1(C)CC(=O)C(C=Nc2ccc(C(=O)c3ccccc3)cc2N=CC2=C(O)CC(C)(C)CC2=O)=C(O)C1 here?
Answer: Its Potency is active: 20 µM.

Question: Which Potency does the source give for Cc1ccc(NC(=O)CSc2nc(NS(=O)(=O)c3ccc(C)cc3)cc(=O)[nH]2)cc1 here?
Answer: Its Potency is “inactive”.

Question: With O=C1C(=O)c2ccccc2C([O-])=C1[n+]1ccccc1 as the compound, how does the Potency read?
Answer: The Potency was “inactive”.

Question: With CC(C)C[C@@H](CC(=O)N[C@H](CC(=O)N[C@@H]1CCCC[C@H]1C(=O)N[C@H](CC(=O)N[C@@H](CCC(=O)O)CC(=O)O)CC(C)C)C(C)C)NC(=O)[C@@H]1CNCC[C@H]1N as the compound, how does the Potency read?
Answer: Its Potency is “inactive”.

Question: How did the Potency turn out when CC1(OC(=O)CCc2ccccc2)C(=O)C=C2C=C(c3ccc(C#N)cc3)N(C3CCCC3)C=C2C1=O (centres undefined) was run?
Answer: The Potency was active: 20 µM.

Question: For C(=N\Nc1ccccc1)/c1ccc(N2CCOCC2)cc1, which Potency is on record?
Answer: The Potency was inconclusive: 28.2 µM [inhibitor, single point].

Question: For COc1ccc(Cl)cc1Nc1cc(C)nc2nc(C)nn12, which Potency is on record?
Answer: Its Potency is “inactive”.

Question: Which Potency does the source give for Cc1cc(=O)oc2cc(OCCC[n+]3ccccc3)ccc12 here?
Answer: Its Potency is inconclusive: 14.1 µM [inhibitor, partial curve].

Question: For O=C(Nc1nnc(SCC(=O)N2CCCc3ccccc32)s1)c1ccccc1, which Potency is on record?
Answer: The Potency was inconclusive: 39.8 µM [inhibitor, single point].

Question: With C=C1c2cc3c(cc2NC(=S)N1Cc1ccccc1)OCO3 as the compound, how does the Potency read?
Answer: The Potency was inconclusive: 6.31 µM [inhibitor, full curve].

Question: With CCN(CC)c1ccc(-n2cc3c(=O)n(C)c(=O)n(C)c3c2)cc1 as the compound, how does the Potency read?
Answer: The Potency was inconclusive: 28.2 µM [inhibitor, partial curve].

Question: How did the Potency turn out when CCCOC(=O)Nc1nc2ccccc2o1 was run?
Answer: The Potency was “inactive”.

Question: How did the Potency turn out when CCOC(=O)N1CCN(C(=O)CSc2nc3c(cnn3-c3ccccc3)c(=O)[nH]2)CC1 was run?
Answer: Its Potency is “inactive”.

Question: Which Potency does the source give for Cc1ccc(OC(C)C(=O)N/N=C/c2ccccn2)cc1 (centres undefined) here?
Answer: The Potency was “inactive”.

Question: COc1ccccc1NC(=O)Cn1c(CCC(=O)O)ccc1-c1ccccc1 was tested. Which Potency did it give?
Answer: Its Potency is inconclusive: 39.8 µM [inhibitor, single point].

Question: With Cc1ccc(/C=C/C(=O)N2CCN(Cc3ccccc3)CC2)o1 as the compound, how does the Potency read?
Answer: The Potency was “inactive”.

Question: For Cc1ccc(S(=O)(=O)NC(=O)c2cc(C)n(CCCN3CCOCC3)c2C)cc1, which Potency is on record?
Answer: Its Potency is inconclusive: 39.8 µM [inhibitor, single point].

Question: COc1ccc(-c2nnc3ccc(SCC(=O)Nc4nc5ccc(C)cc5s4)nn23)cc1OC was tested. Which Potency did it give?
Answer: Its Potency is inconclusive: 39.8 µM [inhibitor, single point].

Question: Which Potency does the source give for COC(=O)c1[nH]c2ccc(F)cc2c1NS(=O)(=O)c1ccc(OC)cc1 here?
Answer: The Potency was inconclusive: 35.5 µM [inhibitor, single point].

Question: For COc1cc2c(cc1OC)C(C(C)C)=NC(C)(C)C2, which Potency is on record?
Answer: Its Potency is inconclusive: 0.501 µM [inhibitor, partial curve, poor fit].
